Results published in the supplement of paper PMC3334620.
Whole data set: some 33,000 sequences, median “E-score (-0.5 to 0.5)” near -0.041, cut for the highest 2% near 0.37. The list shows a part of the results.

Molecular target: T1, Ecm22 (UniProt Q05958)
T1 sequence: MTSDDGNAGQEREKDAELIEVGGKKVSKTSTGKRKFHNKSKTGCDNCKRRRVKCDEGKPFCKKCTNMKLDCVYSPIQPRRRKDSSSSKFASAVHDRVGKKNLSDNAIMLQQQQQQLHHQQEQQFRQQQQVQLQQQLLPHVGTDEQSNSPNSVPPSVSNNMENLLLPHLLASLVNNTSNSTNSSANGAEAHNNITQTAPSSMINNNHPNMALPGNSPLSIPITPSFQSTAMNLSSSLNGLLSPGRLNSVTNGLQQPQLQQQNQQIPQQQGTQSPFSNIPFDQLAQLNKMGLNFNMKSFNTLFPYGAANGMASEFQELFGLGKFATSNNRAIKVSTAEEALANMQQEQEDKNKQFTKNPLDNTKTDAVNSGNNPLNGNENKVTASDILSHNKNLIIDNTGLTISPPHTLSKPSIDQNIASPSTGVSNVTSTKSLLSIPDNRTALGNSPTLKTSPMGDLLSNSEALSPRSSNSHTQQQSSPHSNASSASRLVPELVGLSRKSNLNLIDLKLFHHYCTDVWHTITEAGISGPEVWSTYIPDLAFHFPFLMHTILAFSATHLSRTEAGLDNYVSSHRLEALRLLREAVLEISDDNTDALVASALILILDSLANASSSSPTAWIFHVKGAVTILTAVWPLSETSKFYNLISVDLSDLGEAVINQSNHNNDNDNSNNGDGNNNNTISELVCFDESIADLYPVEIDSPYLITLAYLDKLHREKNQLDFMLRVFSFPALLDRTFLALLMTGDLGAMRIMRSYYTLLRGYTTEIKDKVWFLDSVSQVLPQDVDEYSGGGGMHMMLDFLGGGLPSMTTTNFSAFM
Experiment: PBM E-score (8-mer binding enrichment) (E-score (-0.5 to 0.5)); higher = stronger / more preferred TF binding; most listed sequences are background and not binding sites
Conditions: protein concentration: 200 nM; construct: GST-full length
Summary of the method: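 PURExpress in vitro transcription/translation supplied GST-tagged yeast transcription factors, either full-length or DNA-binding domain. Applied at about 100-200 nM to universal all-10-mer Agilent arrays double-stranded by primer extension, the bound protein was detected with fluorescent anti-GST. E-scores, modified Wilcoxon-Mann-Whitney statistics, were given by the Universal PBM Analysis Suite to ungapped eight-base words pooled with their reverse complements after masliner normalisation.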

Sequence	PBM E-score
ATCAGCAC	-0.204
CAATCGCC	0.0448
AGCGATCG	0.246
AGTCGAAC	0.0504
CGCAAATA	-0.00057
CCCTCACC	-0.212
GGGCGTCA	-0.286
GCCGCCAA	-0.0787
GATTTCAC	0.0409
AAGGGATC	0.112
ATCCCGTA	0.362
AGGAGCTA	-0.138
AGTCCAGA	-0.227
CGGAGATA	0.225
CAGCACCG	-0.0578
ACAAATAC	0.152
CGTCTCCA	0.076
ATCGGGAC	0.0332
TAACCCGA	0.215
TACTACGA	0.347
CCAGACAA	-0.0404
TAGGGTGA	-0.0693

Sequence	PBM E-score
TCCTCTAA	-0.0974
CTACCCTA	-0.338
CTGAAGAC	0.056
CCGAGTAA	0.256
ACGACTTA	0.345
GGTCACAC	-0.154
GACTGCAC	-0.108
GGCATGCA	-0.0522
CTCATTAC	0.0181
TCCGCCAA	-0.121
GTTTACAA	0.19
ACTTGCTG	-0.205
ACGGCCTC	0.136
ATTATACG	0.476
ATGGACCC	-0.193
AACCCTAC	-0.257
GGCTCGTA	0.479
CAGAGTGC	-0.153
CCCACCCC	-0.0343
AGCCTCTA	-0.153
ACATCTTG	-0.0408
AGATATTC	-0.173

Sequence	PBM E-score
AATAAACG	0.41
AGGCCAAG	-0.116
CATGTGTA	0.0619
AGGAGCAC	-0.00417
CGAATGCA	0.138
AACAGGGA	0.00148
ATCAGGGA	-0.128
AAGTTGGC	-0.232
ATGCTATG	-0.105
GCTGTTCC	-0.132
GTCCGTAA	0.169
ATCTAGTA	0.175
CCGGAGAA	0.0286
CGTGTGAC	-0.0109
GCCATCCA	-0.209
GCACTCGA	-0.0307
CGAATAGA	0.0614
CCTTGGCG	-0.159
CATAAGCG	-0.0124
ACCAGTTC	0.00324
ACTTATTA	-0.00971
GAGCTTAA	0.0486

Sequence	PBM E-score
AGGAGTAA	-0.0246
CCGGTACG	0.448
CTTCCACC	-0.197
AAAGGCTT	-0.177
GATTCTTA	0.0436
AATGTTGA	-0.103
TGATAGAA	-0.116
AAGTGCTG	0.0503
GTATATTA	0.195
ACTCATTC	-0.0742
AGGTCTAC	-0.0135
CGCTATCC	0.151
TCTCCAAA	-0.187
CTGTCCTA	-0.18
AACAACCC	0.155
GATTCGTA	0.45
ATTCGTGC	-0.00078
CATCGAAG	-0.0741
AATTCTGG	-0.165
ACTCTAAG	-0.283
